Consider 31 sequences from paper PMC12820563.

This is one part of the list. The list includes weakly bound sequences.

This assay concerns the target T1, MBP-FoxP3dN (UniProt Q99JB6).
T1 sequence: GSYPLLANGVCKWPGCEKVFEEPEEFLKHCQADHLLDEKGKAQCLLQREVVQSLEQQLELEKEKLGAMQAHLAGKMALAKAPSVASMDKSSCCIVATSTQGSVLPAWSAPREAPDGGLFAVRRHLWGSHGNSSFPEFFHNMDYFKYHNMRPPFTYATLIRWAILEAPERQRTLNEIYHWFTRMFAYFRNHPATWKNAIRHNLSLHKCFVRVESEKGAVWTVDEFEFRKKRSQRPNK
Description: PD-seq (MBP pull-down with sequencing). The settings on record: 20 mM Tris-HCl pH 7.5, 100 mM NaCl, 1.5 mM MgCl2, 0.4 uM protein, 0.1 uM dsDNA library, 30 min, room temperature, amylose pull-down; high values mean tight binding; double strand, one strand shown.
On to “GATGATTGTTCTCCCAGCTGATGAATTTGAGGCATCGAGTAAACAAATTTTCCTAATCTTTCTGTTCAAGCGCCATCTAC”, for which the binding signal (RPM ratio (pull-down/input)) came out at 0.877.
For “GATGATTGTTCTCCCAGCTGATGAATTTATCTCGTCGAGTAAACAAATTTTCCTAATCTTTCTGTTCAAGCGCCATCTAC” the value was 0.555; for “GATGATTGTTCTCCCAGCTGATGAATTAATTCTATCGAGTAAACAAATTTTCCTAATCTTTCTGTTCAAGCGCCATCTAC”, 0.275.
For “GATGATTGTTCTCCCAGCTGATGAATTTTCCCACTCGAGTAAACAAATTTTCCTAATCTTTCTGTTCAAGCGCCATCTAC” the value was 0.213; for “GATGATTGTTCTCCCAGCTGATGAATTACATTATTCGAGTAAACAAATTTTCCTAATCTTTCTGTTCAAGCGCCATCTAC”, 0.967.
As to “GATGATTGTTCTCCCAGCTGATGAATTAGGAGAGTCGAGTAAACAAATTTTCCTAATCTTTCTGTTCAAGCGCCATCTAC”, the binding signal (RPM ratio (pull-down/input)) came to 0.256.
With “GATGATTGTTCTCCCAGCTGATGAATTCGTATTCTCGAGTAAACAAATTTTCCTAATCTTTCTGTTCAAGCGCCATCTAC”, the binding signal (RPM ratio (pull-down/input)) was 2.07.
For “GATGATTGTTCTCCCAGCTGATGAATTCTTGTAATCGAGTAAACAAATTTTCCTAATCTTTCTGTTCAAGCGCCATCTAC” the value was 0.734; for “GATGATTGTTCTCCCAGCTGATGAATTAATGAGATCGAGTAAACAAATTTTCCTAATCTTTCTGTTCAAGCGCCATCTAC”, 0.246; for “GATGATTGTTCTCCCAGCTGATGAATTGAAGTCATCGAGTAAACAAATTTTCCTAATCTTTCTGTTCAAGCGCCATCTAC”, 0.441.
For “GATGATTGTTCTCCCAGCTGATGAATTGACAAACTCGAGTAAACAAATTTTCCTAATCTTTCTGTTCAAGCGCCATCTAC” the value was 0.755; for “GATGATTGTTCTCCCAGCTGATGAATTAACATACTCGAGTAAACAAATTTTCCTAATCTTTCTGTTCAAGCGCCATCTAC”, 0.486; for “GATGATTGTTCTCCCAGCTGATGAATTAGCCAATTCGAGTAAACAAATTTTCCTAATCTTTCTGTTCAAGCGCCATCTAC”, 0.326.
For “GATGATTGTTCTCCCAGCTGATGAATTGAAAAGTTCGAGTAAACAAATTTTCCTAATCTTTCTGTTCAAGCGCCATCTAC” the value was 0.16.
For “GATGATTGTTCTCCCAGCTGATGAATTTAAGATGTCGAGTAAACAAATTTTCCTAATCTTTCTGTTCAAGCGCCATCTAC”, the binding signal (RPM ratio (pull-down/input)) is 0.373.
For “GATGATTGTTCTCCCAGCTGATGAATTCCGTCTCTCGAGTAAACAAATTTTCCTAATCTTTCTGTTCAAGCGCCATCTAC” the value was 0.992.
For “GATGATTGTTCTCCCAGCTGATGAATTCGGCAGGTCGAGTAAACAAATTTTCCTAATCTTTCTGTTCAAGCGCCATCTAC” the value was 0.539; for “GATGATTGTTCTCCCAGCTGATGAATTCGTTGTCTCGAGTAAACAAATTTTCCTAATCTTTCTGTTCAAGCGCCATCTAC”, 4.96.
Take “GATGATTGTTCTCCCAGCTGATGAATTACTCAGTTCGAGTAAACAAATTTTCCTAATCTTTCTGTTCAAGCGCCATCTAC”: the binding signal (RPM ratio (pull-down/input)) turned out to be 0.296.
For “GATGATTGTTCTCCCAGCTGATGAATTAGATAACTCGAGTAAACAAATTTTCCTAATCTTTCTGTTCAAGCGCCATCTAC” the value was 0.358; for “GATGATTGTTCTCCCAGCTGATGAATTGCGGGGCTCGAGTAAACAAATTTTCCTAATCTTTCTGTTCAAGCGCCATCTAC”, 0.665.
For “GATGATTGTTCTCCCAGCTGATGAATTATTGCTATCGAGTAAACAAATTTTCCTAATCTTTCTGTTCAAGCGCCATCTAC” the value was 1.25; for “GATGATTGTTCTCCCAGCTGATGAATTTAAAGTCTCGAGTAAACAAATTTTCCTAATCTTTCTGTTCAAGCGCCATCTAC”, 0.356; for “GATGATTGTTCTCCCAGCTGATGAATTCGAAGGGTCGAGTAAACAAATTTTCCTAATCTTTCTGTTCAAGCGCCATCTAC”, 0.259.
Take “GATGATTGTTCTCCCAGCTGATGAATTCACTGGTTCGAGTAAACAAATTTTCCTAATCTTTCTGTTCAAGCGCCATCTAC”: the binding signal (RPM ratio (pull-down/input)) was 0.354.
As to “GATGATTGTTCTCCCAGCTGATGAATTCGGTAATTCGAGTAAACAAATTTTCCTAATCTTTCTGTTCAAGCGCCATCTAC”, the binding signal (RPM ratio (pull-down/input)) was 0.998.
For the sequence “GATGATTGTTCTCCCAGCTGATGAATTTCGCACGTCGAGTAAACAAATTTTCCTAATCTTTCTGTTCAAGCGCCATCTAC”, the binding signal (RPM ratio (pull-down/input)) amounted to 1.99.
Turning to “GATGATTGTTCTCCCAGCTGATGAATTTGGATCCTCGAGTAAACAAATTTTCCTAATCTTTCTGTTCAAGCGCCATCTAC”, the binding signal (RPM ratio (pull-down/input)) amounted to 0.458.
For “GATGATTGTTCTCCCAGCTGATGAATTGGTAGTATCGAGTAAACAAATTTTCCTAATCTTTCTGTTCAAGCGCCATCTAC” the value was 1.51; for “GATGATTGTTCTCCCAGCTGATGAATTCTGCTGTTCGAGTAAACAAATTTTCCTAATCTTTCTGTTCAAGCGCCATCTAC”, 3.41; for “GATGATTGTTCTCCCAGCTGATGAATTAACCTAGTCGAGTAAACAAATTTTCCTAATCTTTCTGTTCAAGCGCCATCTAC”, 0.193.
